# According to PubChem BioAssay AID485344 (National Center for Advancing Translational Sciences (NCATS), 2010):
# Out of some 340,000 compounds screened, about 6,900 (2%) were called active. No stated cut-off is given here; in the data, active means inhibition above about 30%; inactive means below that, where a call was filed. Only a part is listed here, and it is no random draw. Where no call is shown, the source filed none.
# Biological target: D(2) dopamine receptor (Homo sapiens) (UniProt P14416)
# Experiment: HTS Assay for Allosteric Antagonists of the Human D2 Dopamine Receptor: Primary Screen for Antagonists; further: 0% is about no effect
# Conditions: HEK293 TREx D2 cells, calcium flux, dopamine EC80; at 10 µM; stronger effect = higher value
# Method in brief: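 Measurement of antagonist activity uses fluorescent calcium dye in inducible HEK293 T-REx D2 cells: 10 s baseline, compound addition with 180 s read, EC80 dopamine addition with a further 180 s read.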
# UniProt P14416, sequence (P14416 whole entry, looked up): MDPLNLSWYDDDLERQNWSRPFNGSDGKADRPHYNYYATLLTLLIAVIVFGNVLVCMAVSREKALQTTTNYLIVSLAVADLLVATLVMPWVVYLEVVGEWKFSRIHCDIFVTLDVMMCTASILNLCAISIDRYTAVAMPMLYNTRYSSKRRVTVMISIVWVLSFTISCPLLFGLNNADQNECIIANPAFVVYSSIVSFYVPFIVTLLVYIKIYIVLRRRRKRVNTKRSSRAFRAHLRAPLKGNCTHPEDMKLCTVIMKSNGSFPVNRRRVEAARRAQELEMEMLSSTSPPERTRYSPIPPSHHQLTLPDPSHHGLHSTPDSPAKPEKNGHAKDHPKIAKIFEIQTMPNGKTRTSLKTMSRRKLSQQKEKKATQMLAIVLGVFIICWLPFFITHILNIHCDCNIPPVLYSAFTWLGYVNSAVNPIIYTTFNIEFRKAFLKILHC
row,SMILES,inhibition
1,COc1ccc(CCNC(=O)c2cc(-c3ccccc3)nc3ccccc23)cc1OC,-4.4%
2,CCn1cc(C(=O)OCC(=O)Nc2cc(C)cc(C)c2)c(=O)c2ccc(C)nc21,18.8%
3,COC(=O)c1scc(-c2ccc(C)cc2)c1S(=O)(=O)Nc1cccc(C(F)(F)F)c1,-6.1%
4,COc1cccc(CNC(=O)c2cc(=O)[nH]c3ccc(S(=O)(=O)N4CCCCC4)cc23)c1,17.2%
5,CC(C)C(=O)OC1=CN(Cc2ccccc2)S(=O)(=O)c2ccccc21,14.6%
6,COc1ccccc1CNC(=O)c1ccc2c(c1)sc1nc(-c3ccc(F)cc3)cn12,0.0818%
7,Cc1cccc(C)c1Nc1c(-c2ccc(Cl)s2)nc2ncccn12,8.05%
8,NC(=O)CSc1nccn1Cc1ccccc1,active: 44.8%
9,Cc1ccc(Cl)cc1NC(=O)CN(C)S(=O)(=O)c1ccc2c(c1)n(C)c(=O)c(=O)n2C,2.56%
10,COc1ccc(C2C(C(N)=O)=C(C)Nc3nc(-c4ccccc4Cl)nn32)cc1 (stereo not drawn),19.4%
11,O=C(O)CC1SC(=Nc2ccccc2)N(c2ccccc2)C1=O (stereo not drawn),active: 42.6%
12,COc1cccc(NC(=O)CC2C(=O)OCCN2Cc2ccccc2)c1 (stereo not drawn),14.6%
13,Cc1ccc2oc(C(=O)N(Cc3ccccc3F)C3CCS(=O)(=O)C3)c(C)c2c1 (stereo not drawn),-7.19%
14,Cn1c(=O)[nH]c(=O)c2c1nc1n(CCO)c(-c3ccccc3)cn21,3.09%
15,O=C(CSc1nc2c(cnn2-c2ccc(F)cc2)c(=O)[nH]1)Nc1ccc(Br)cc1,-5.46%
16,CCCCOc1ccc(-c2cc3c(=O)n(CC(=O)Nc4ccc(Cl)cc4Cl)ccn3n2)cc1,-14.8%
17,CCOc1cccc2cc(-c3nnc(Nc4ccc(F)c(Cl)c4)s3)c(=O)oc12,-9.18%
18,Cc1ccc(-c2nn(CC(=O)NC3CCCCC3)c3c2cnc2ccc(F)cc23)cc1C,4.43%
19,CC1CCc2c(sc(NC(=O)COc3ccccc3)c2C(=O)Nc2ccccc2Cl)C1 (stereo not drawn),9.13%
20,Cc1ccc(CSCC(=O)N2CCN(c3cc(Cl)ccc3C)CC2)cc1,3.55%
21,Cc1ccc(-n2nc(C(=O)NCCN(C)C)c(=O)n(C)c2=O)cc1,-4.65%
22,O=C(Nc1ccc(SC(F)F)cc1)c1cc(-c2ccc3c(c2)OCCO3)on1,-6.47%
23,O=C(O)c1ccccc1OC(C(=O)Nc1cc(Cl)cc(Cl)c1)c1ccccc1 (stereo not drawn),active: 36.1%
24,Cc1noc(Cn2c(=O)c3cc4c(cc3n(CC(=O)Nc3cccc(Cl)c3)c2=O)OCO4)n1,-3.24%
25,CCOc1ccc(CNC(=O)c2c(C)nn(-c3ccc(F)cc3)c2-n2cccc2)cc1,-11%

row,SMILES,inhibition
1,Cc1cccc(C)c1NC(=O)CN1C(=O)S/C(=C\c2cccn2C)C1=O,active: 30.1%
2,CC(=O)Nc1nonc1-c1nnc(SCC(=O)Nc2ccc(C)cc2C)n1C,-10.1%
3,COc1ccc(NC(=O)[C@@H](c2ccccc2)N2Cc3ccccc3C2=O)cc1OC,-18.8%
4,Cc1nc(C)n(CC(C)C(=O)N2CCN(S(=O)(=O)c3ccccc3)CC2)n1 (stereo not drawn),active: 31.7%
5,CCN(CC)c1cc(C)c2cc(NC(=O)/C=C/c3ccc(C)cc3)ccc2n1,0.673%
6,CC(=O)c1ccc(N2CCN(C(=O)c3cc4cc5cc(C)ccc5nc4s3)CC2)cc1,12.5%
7,Cc1ccc(C)c(NC(=O)C2CCCN(S(=O)(=O)c3ccc4[nH]c(=O)ccc4c3)C2)c1 (stereo not drawn),-4.72%
8,CCC(=O)Nc1nc(-c2ccc3c(c2)OCCO3)cs1,active: 31.8%
9,Cn1nccc1NC(=O)Nc1ccc(Cl)cc1,active: 43%
10,Cc1ccc(C(=O)c2oc3ccccc3c2NC(=O)c2cc(-c3ccccc3)on2)cc1F,-4.74%
11,CCCN(CCC)C(=O)C1CCCN(S(=O)(=O)c2ccc3c(c2)oc(=O)n3C)C1 (stereo not drawn),16%
12,Cc1ccc(/C=N/NC(=O)Cn2nnc(N)n2)cc1,active: 41%
13,O=C(c1ccccc1)c1ccccc1NC(=O)c1ccccc1C(=O)O,-1.84%
14,COc1ccc(CCNC(=O)[C@@H](NC(N)=O)C(C)C)cc1,active: 50.1%
15,COc1ccc(-c2noc(-c3ccc(NC4CCCC4)c([N+](=O)[O-])c3)n2)cc1,8.01%
16,Oc1c(Br)cc(Br)cc1-c1nc2ccccc2s1,6.61%
17,CS(=O)(=O)N(CC(=O)NCCSc1ccccc1)c1cc(C(F)(F)F)ccc1Cl,-15.6%
18,COc1cccc(C2C(C(=O)Nc3ccccc3)=C(C)Nc3nc(-c4ccccc4)nn32)c1 (stereo not drawn),-19.5%
19,COc1ccc(OC)c(NC(=O)CSc2cn(CC(=O)N3CCOCC3)c3ccccc23)c1,-5.96%
20,COc1ccc(Cl)cc1NC(=O)c1cc2c(s1)-c1ccccc1OC2,-1.38%
21,CCc1ccc(OC(C)C(=O)Nc2c(C(=O)c3ccccc3)oc3ccccc23)cc1 (stereo not drawn),6.03%
22,Cc1nn(CC(C)C)c(=S)[nH]c1=O,active: 31.6%
23,COCCNC(=O)CCc1nc2cccnc2n1Cc1ccc(OC)cc1,6.08%
24,Cc1c(C(=O)N2CCC(C(=O)Nc3ccc(F)cc3)CC2)sc2nc[nH]c(=O)c12,-22.5%
25,Cc1noc2ncnc(NCc3cccc(Cl)c3)c12,-6.67%

row,SMILES,inhibition
1,Cc1cccc(-n2c3nc(=O)n(C)c(=O)c-3cc3ccc(Cl)cc32)c1C,2.59%
2,CS(=O)(=O)N1CCc2cc(C(=O)NCc3ccccc3)ccc21,8.12%
3,Oc1cccc(Nc2ncnc3sc4c(c23)CCCC4)c1,5.62%
4,CCOc1ccc(-n2c(SCC(=O)N3CCCCC3)nc3c([nH]c4ccccc43)c2=O)cc1,0.804%
5,O=C(Cn1c(=O)n(Cc2ccc3c(c2)OCO3)c(=O)c2ccc(C(=O)NC3CCCCC3)cc21)Nc1ccccc1F,-24.5%
6,Cc1cccn2c(=O)c3cc(C(=O)NCc4ccccc4Cl)sc3nc12,-22.8%
7,COc1ccc(-c2cc(C(=O)Oc3ccc(C)c(C)c3)c3ccccc3n2)cc1,7.2%
8,O=C(NC1CC2CCCC(C1)N2Cc1cccs1)c1ccc([N+](=O)[O-])cc1 (stereo not drawn),active: 57.2%
9,Cc1ccc(C(=O)NC2(C(F)(F)F)C(=O)Nc3c2c(=O)[nH]c(=O)n3CCc2ccccc2)cc1 (stereo not drawn),17.8%
10,CCOC(=O)c1cc(-c2ccccc2)n(CCCC(=O)Nc2ccc(C)cc2C)c1C,11.1%
11,O=C(N/N=C/c1ccccc1O)C1CC(=O)N(c2ccc(Cl)cc2)C1 (stereo not drawn),active: 35.2%
12,O=c1[nH]c(SCc2ccc(Br)cc2)nc2c1CCCC2,1.05%
13,Cc1ccc(S(=O)(=O)N2CCN=C2SCc2ccc(Cl)c(Cl)c2)cc1,active: 30.2%
14,Cc1ccc(S(=O)(=O)c2nnn3c2nc(N2CCN(c4ccccc4F)CC2)c2ccccc23)cc1C,13.5%
15,O=C(NC1CC(=O)N(c2ccc(Cl)cc2)C1)c1cccs1 (stereo not drawn),21.5%
16,CC(NC(=O)Cn1c(-c2cccs2)cc2cc(F)ccc21)c1ccccc1 (stereo not drawn),-0.575%
17,O=C(CSc1nc(=O)n(Cc2ccco2)c2c1CCC2)NCc1ccc(F)cc1,-22.5%
18,COc1ccc(N=Cc2c(O)n(-c3cccc(C)n3)c(=O)c3ccccc23)cc1,active: 32%
19,COc1ccc(Cl)c2c1[nH]c1nc(SCc3ccccn3)nnc12,active: 42.9%
20,CC1=C(C(=O)Nc2ccccc2C)C(c2ccccn2)n2nc(SCc3ccccc3F)nc2N1 (stereo not drawn),8.95%
21,COc1ccc2nc(NC(=O)c3ccc(S(=O)(=O)N4CCCC(C)C4)cc3)sc2c1 (stereo not drawn),11.5%
22,CN(c1ccc(C(=O)Nc2ccc(CC#N)cc2)cc1)S(C)(=O)=O,active: 40.7%
23,CCc1ccc(NC(=O)CSc2nc(=O)n(Cc3ccco3)c3c2CCC3)cc1,20%
24,Cc1nc2nc(NC(=O)c3ccc(Cl)cc3)[nH]n2c(=O)c1Cc1ccccc1,14.3%
25,COc1ccc(-c2cc(C(=O)NCCc3ccccc3)c3cc(C(C)C)ccc3n2)cc1,27.1%

row,SMILES,inhibition
1,CC(=O)c1ccc(N2CCN(C3C(=O)c4ccccc4N3C(C)=O)CC2)cc1 (stereo not drawn),5.41%
2,O=S(=O)(c1ccc(Br)cc1)c1nnn2c1nc(NCc1cccs1)c1sccc12,-8.84%
3,COCCCNC(=O)C1CCN(c2cc(C)nc3c(-c4ccc(OC)c(OC)c4)c(C)nn23)CC1,-0.724%
4,CCOc1cc(-c2nc(-c3ccc(-c4ccc(OC)cc4)nc3OC)no2)cc(OCC)c1OCC,0.687%
5,COc1ccccc1NC(=O)CCn1c(=O)oc2cc(Cl)ccc21,-9.58%
6,COc1ccc(-n2cc(C(=O)NCc3cccc(OC)c3)c3ccccc3c2=O)cc1,13.8%
7,Cc1ccc(Cn2c(C(=O)O)c(CNCCc3ccco3)c3ccc(C)cc32)cc1,10%
8,Cc1cc(C)c(C(=O)Nc2ccccc2)c(SCC(=O)Nc2ccc(Br)cc2C)n1,-4.99%
9,O=C(COC(=O)CCCSc1nc2ccccc2[nH]1)Nc1ccc(Oc2ccccc2)cc1,active: 38.2%
10,CCn1c(NCc2cccc(Cl)c2)nc2ccccc21,19.3%
11,CC(C)N(Cc1ccccc1)C(=O)C1CCCN(c2ncnc3c2nc2n3CCCCC2)C1 (stereo not drawn),active: 38%
12,O=c1cc(-c2ccc(O)cc2)oc2ccc(O)cc12,active: 37.4%
13,COc1cc(-c2nc3ccc(C)cn3c2Nc2ccc(Cl)cc2)ccc1O,12.7%
14,O=C(CSc1nc(-c2ccccc2)cn1-c1ccccc1)Nc1ccccc1,-8.3%
15,COc1cccc(C(=O)NC2=NC(c3ccc(N(C)C)cc3)CC(=O)N2)c1 (stereo not drawn),15.2%
16,CC(C)Oc1ccc(CNC(=O)CCCn2c(=O)c3cccn3c3cccnc32)cc1,3.53%
17,O=C(NCc1ccc2c(c1)CCN2C(=O)c1ccncc1)c1ccc(Cl)cc1,4.07%
18,COc1cccc(-c2nnc3n(Cc4ccccc4Cl)c(=O)c4ccccc4n23)c1O,1.43%
19,Cc1ccc2c(=O)c(C(=O)c3ccccc3)cn(CC(=O)Nc3ccccc3)c2n1,-11%
20,Cc1c(Cl)cccc1NC(=O)CN1C(=O)CCn2nc(-c3cccn3C)cc21,-8.66%
21,COCCN(CCOC)C(=O)c1cc2c(=O)n3ccccc3nc2n1C,25.7%
22,CCOC(=O)C(Cc1c[nH]c2ccccc12)NC(=O)COc1ccc(Cl)cc1 (stereo not drawn),12.2%
23,CC(C(=O)Nc1ccccc1C(F)(F)F)n1nc(-c2ccccc2)c2c(c1=O)CCCC2 (stereo not drawn),-8.88%
